± gives the standard deviation. The entries are a selection whose mix differs from that of the whole data set.
System: MIWI (PIWIL1) piRISC loaded with L1MC piRNA (30 nt)
Test: pre-steady-state target cleavage rate (min^-1); MIWI and MILI are mouse PIWI proteins and EfPiwi is from a freshwater sponge; tags in brackets are library labels; higher = faster piRNA-guided slicing of the target
Settings: guide: L1MC piRNA 5'p-UAACUAAAUACUAUGCAAGCUGUAGGUCCU; auxiliary factor: 500 nM mouse GTSF1
Method in brief: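 At 33 °C in HEPES–potassium acetate buffer, a transcribed, DNA-blocked target RNA library […] was exposed for 0–8 or 0–960 min to 1 nM active affinity-purified piRISC carrying a single synthetic guide, with or without 500 nM GTSF1 partner protein. Uncleaved targets were sequenced and normalised to depth and to weakly complementary targets. With three trials pooled and k3 capped at 0.0001 min^-1, a burst-and-steady-state fit produced the pre-steady-state cleavage rate.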
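Note: 1 nM active piRISC with 0.1 nM target library at 33 °C single turnover.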

Sequence | pre-steady-state target cleavage rate
UCCUGGUACAGCUUGCAUAGUAUUUUCAUA | 0.188 ± 0.051
UGGACCUAGUCCUUGCAUAGUAUUUAGAAA | 0.0216 ± 0.0097
UCCUGGAUGAGCUUGCAUAGUAUUAACAAA | 0.0173 ± 0.0075
UCCUGGAUGUCGAAGCUUAGUAUUUACUUA | < 0.0001
UCCUGGAUGAGGUUGCAUACUAUUUAGUUA | 0.0173 ± 0.0077
UCCUGGAUCAGCUUGCAUGUAUUUAGUUA | 0.0152 ± 0.0038
UCCACCUACUCCUUGCAUAGUAUUUUCAAA | 0.143 ± 0.021
UCCUGGAUGUCGAUGCAUAGUAUUGAGUUA | 0.02 ± 0.006
UCCUGGAUGUGCUUGCAUAGUAUUUUCAUA | 0.0173 ± 0.0067
AGGACCUACAGCUUGGUAAGUAUUUAGUAA | 0.162 ± 0.054
UCCUGGAUCAGCAACCAUAGUAUUUAGUUA | 0.00823 ± 0.0048
UGGACCUACAGCUUGCAUAGUAUUAUGAAA | 0.225 ± 0.041
UCCACCUACAGCUUGCAUAGUAUAAAGUAA | 0.278 ± 0.04
UCCUGGAUCAGCUUCCAUAGUAUUUACUUA | 0.00581 ± 0.0044
UCCUGCUACAGCUUGCAUAGUAUUAUGAAA | 0.214 ± 0.039
UCCUGGUACAGCUUGGAUAGUAUUUUCAAA | 0.00705 ± 0.0056
UCCACCUACAGCUUGCAUACAUUUUAGUUA | 0.00856 ± 0.005
UCCUGGUACAGCUUGCUUAGUAUUUUCAAA | 0.0596 ± 0.018

Sequence | pre-steady-state target cleavage rate
UCCUGGAACAGCAUGCAUAGUAUUUACAAA | 0.327 ± 0.041
UCCUGGAACAGCUUGCAUAGUAAAAAGUAA | 0.0753 ± 0.019
UCCACCUACAGCUUGCAUUGUAUUUUCAAA | 0.102 ± 0.018
UCCACCUACAGCUUGCAUUCUAUUUAGAAA | 0.0473 ± 0.015
UCCUGGAUGUCGAUAGCAUAGUAUUUAGUUA | 0.0121 ± 0.0058
AGGACCUACAGCUUGCGAUAGUAUUUAGUUA | 0.108 ± 0.026
UCCUCCUACAGCUUCGAUAGUAUUUACAAA | 0.0331 ± 0.011
UCCUGGUACAGCUUGCAAUGUAUUUAGAAA | 0.0194 ± 0.0063
UCCUGGAUGUCGAACGUAUGUUUUUUGUUA | < 0.0001
UCGACCUACAGCUUGCAUUGUAUUUACAAA | 0.154 ± 0.026
UCCUGGAUCUCCUUGCAUAGUAUUUAGAAA | 0.188 ± 0.044
UCCUGGAUGUCGAACGAUAGAUAUUUAGUUA | < 0.0001
UCCUGGAACAGCUUGCAUAGAUUUUAGUAA | 0.0419 ± 0.015
UCCUGGAACAGCUUGCAAUGUAUUUACAAA | 0.0619 ± 0.019
UCGAGCUACAGCUUGCAUAGUAUUUUCAAA | 0.269 ± 0.039
UCCUCCUACACGAUGCAUAGUAUUUAGUAA | 0.42 ± 0.034
UCGACCUACAGCAACCAUAGUAUUUAGUUA | 0.216 ± 0.019
UCCUCCUACAGCUUGCAUAGAAUUUACAAA | 0.295 ± 0.045

Same assay, conditions: guide: L1MC piRNA 5'p-UAACUAAAUACUAUGCAAGCUGUAGGUCCU; auxiliary factor: none (no GTSF1)

Sequence | pre-steady-state target cleavage rate
UCCUGGAUGUCGAACGUUAGUAUAAUCAAA [g8:g13:cont:t1A] | < 0.0001
UCCUGGAUGUCGAACCAUAGUAUUUUCAAA [g6:g15:cont:t1A] | < 0.0001
UCCUGGAUGUCGAACGAAAGUAUUUUGUUA | < 0.0001
